# Screen size: about 310,000 compounds; about 14,000 (4.5%) showed an effect of 50% or more. The effect is printed as a negative number. This is one part of the list.
# Target: human ether-à-go-go-related gene (hERG) potassium channel (human, UniProt Q12809)
# Test: primary screen, population patch clamp on CHO cells stably expressing hERG
# 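Further: peak tail current of the secondary pulse compared with the same well before compound.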
# human ether-à-go-go-related gene (hERG) potassium channel, sequence (Q12809 whole entry, looked up): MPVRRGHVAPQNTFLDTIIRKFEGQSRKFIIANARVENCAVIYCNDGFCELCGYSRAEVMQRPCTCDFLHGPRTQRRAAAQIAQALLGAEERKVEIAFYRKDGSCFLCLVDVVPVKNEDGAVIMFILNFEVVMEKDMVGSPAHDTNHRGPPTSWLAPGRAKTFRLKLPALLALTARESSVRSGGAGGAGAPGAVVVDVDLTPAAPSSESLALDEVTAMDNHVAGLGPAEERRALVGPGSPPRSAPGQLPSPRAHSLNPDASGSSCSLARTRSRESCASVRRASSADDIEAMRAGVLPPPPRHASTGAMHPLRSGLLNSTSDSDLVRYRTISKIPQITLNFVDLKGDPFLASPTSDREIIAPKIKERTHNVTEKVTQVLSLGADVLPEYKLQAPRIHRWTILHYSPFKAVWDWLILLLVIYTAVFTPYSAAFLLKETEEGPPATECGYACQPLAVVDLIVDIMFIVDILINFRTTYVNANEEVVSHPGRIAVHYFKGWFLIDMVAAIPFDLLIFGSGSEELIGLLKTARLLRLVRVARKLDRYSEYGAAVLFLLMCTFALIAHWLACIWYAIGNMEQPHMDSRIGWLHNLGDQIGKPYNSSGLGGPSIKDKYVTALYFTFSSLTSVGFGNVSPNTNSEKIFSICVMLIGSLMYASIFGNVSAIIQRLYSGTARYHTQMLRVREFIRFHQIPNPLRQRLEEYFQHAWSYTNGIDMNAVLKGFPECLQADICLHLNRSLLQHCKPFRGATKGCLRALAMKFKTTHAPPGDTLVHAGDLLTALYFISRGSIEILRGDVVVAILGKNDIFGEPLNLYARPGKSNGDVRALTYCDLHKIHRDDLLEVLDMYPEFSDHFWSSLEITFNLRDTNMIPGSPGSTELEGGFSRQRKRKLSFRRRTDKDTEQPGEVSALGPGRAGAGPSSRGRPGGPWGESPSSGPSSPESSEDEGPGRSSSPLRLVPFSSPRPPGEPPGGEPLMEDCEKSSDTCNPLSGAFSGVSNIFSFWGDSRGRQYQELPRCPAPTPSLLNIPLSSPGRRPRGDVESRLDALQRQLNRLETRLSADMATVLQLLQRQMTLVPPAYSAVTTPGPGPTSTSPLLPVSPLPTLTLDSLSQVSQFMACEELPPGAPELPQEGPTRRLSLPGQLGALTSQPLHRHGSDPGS
row,Compound,"hERG current change (%, negative = inhibition) at 10uM"
1,O=C(CCCc1ccccc1)NCc1ccc2c(c1)OCO2,-2.49%
2,CCN(CC)C(=O)COc1ccc(/C(C)=N/NC(=O)c2ccccc2Br)cc1,8.89%
3,CCOC(=O)C1CCN(c2c(NCCN3CCN(c4ccccc4)CC3)c(=O)c2=O)CC1,-10.7%
4,CS(=O)(=O)c1ccc2nc(NC(=O)CCS(=O)(=O)c3ccccc3)sc2c1,19.7%
5,CC1CCN(C(=O)c2nc[nH]c2C(=O)N2CCc3ccccc3C2)CC1,14.1%
6,CC(C)CCNC(=O)c1cc2c(=O)n3ccccc3nc2s1,-1.28%
7,CC(C)C(OC(=O)CN1C(=O)c2ccccc2C1=O)C(=O)NC1CCCCC1 (centres unmarked),17.5%
8,Cn1c(C(=O)NCc2ccc3c(c2)OCO3)cc2sccc21,-17.9%
9,CCN(CC)S(=O)(=O)c1cc(NC(=O)CCNC(=O)c2ccccc2Cl)ccc1C,-11.5%
10,Cc1ccc(SCC(=O)OCC(=O)N(CC(C)C)C2CCS(=O)(=O)C2)cc1C (centres unmarked),-4.29%
11,CCCCC1=CC2=CC(=O)C(C)(OC(=O)CC)C(=O)C2=CN1CCN1CCOCC1 (centres unmarked),-11.7%
12,Cn1c(Cc2ccccc2)nnc1SCC(=O)c1cccs1,9.78%
13,CN(C)C(=O)c1coc2nc3ccccc3nc12,-1.35%
14,Cc1cccc(N(C)Cc2nnc(-c3cccc(Br)c3)o2)c1,20.6%
15,Cc1nc(NC(=O)/C=C/c2ccccc2)sc1C(=O)N1CCCCC1,3.2%
16,CC1(OC(=O)c2ccc(Cl)nc2)C(=O)C=C2C=C3CCCN3C=C2C1=O (centres unmarked),15.8%
17,Cc1cc(N2CCOCC2)nc2ccccc12,-3.24%
18,O=C(Nc1ccccc1C(F)(F)F)c1ccccn1,-4.16%
19,COc1ccc(OC)c(CN2CCC(CO)(CCOc3ccccc3)CC2)c1,-76.2%

row,Compound,"hERG current change (%, negative = inhibition) at 10uM"
1,O=C(NCCCNC(=O)c1cnccn1)c1ccc(Br)cc1,-11.8%
2,CCOC(=O)c1ccc(NC(=S)Nc2cccc(C)n2)cc1,19%
3,Br.CCn1c(=N)n(CC(=O)C(C)(C)C)c2ccccc21,-21.1%
4,O=C(Cn1cnc(Cl)c1Cl)c1ccc(F)cc1,6.34%
5,CSC1=N/C(=C\c2cccc(F)c2)C(=O)S1,15.3%
6,O=c1[nH]c(=O)n(Cc2ccccc2)c2nc(-c3ccc(Oc4ccc(F)cc4)c([N+](=O)[O-])c3)n(CCO)c12,-30.7%
7,COC(=O)c1c(NC(=O)CSc2nnc(CNc3ccc(Cl)cc3)o2)sc(C)c1C,2.46%
8,CSCC[C@H](NC(=O)[C@H]1N2C(=O)c3ccccc3C2SC1(C)C)C(=O)NCc1ccncc1 (some centres unmarked),-11.6%
9,COc1cccc(C2c3[nH]c4ccccc4c3C[C@H]3C(=O)N(CCCO)CC(=O)N23)c1OC (some centres unmarked),-6.83%
10,COc1ccc(NC(=O)C2CCCN(C(=O)Nc3ccc(OC)cc3)C2)cc1 (centres unmarked),-19%
11,Cc1ccc(C(=O)COC(=O)CN2C(=O)C3CC=CCC3C2=O)cc1[N+](=O)[O-] (centres unmarked),8.4%
12,CCOc1ccccc1NC(=O)C12CC3CC(C1)CC(c1ccc(C)cc1)(C3)C2,-5.02%
13,Cc1ccc2[nH]c(C(=O)N/N=C/c3ccc([N+](=O)[O-])cc3)c(C)c2c1,18.5%
14,CN(CC(=O)Nc1ccc(Cl)cc1)C(=O)CNC(=O)Cc1cccc2ccccc12,20.1%
15,CC1(C)CC(=O)C(C2C3=C(CC(C)(C)CC3=O)Oc3c(Br)cc(Br)cc32)=C(O)C1 (centres unmarked),-31.8%
16,Cc1cccc(C(=O)N2CCN=C2SCc2ccc([N+](=O)[O-])cc2)c1,-51.9%
17,N/C(=N\OC(=O)c1ccc2c(c1)OCO2)c1ccncc1,-5.11%
18,COc1cccc(CN(C(=O)c2ccco2)C2CCS(=O)(=O)C2)c1 (centres unmarked),2.91%
19,COc1cccc(OCC(=O)NNC(=O)C(=O)Nc2ccc(OC)cc2OC)c1,16.1%

row,Compound,"hERG current change (%, negative = inhibition) at 10uM"
1,O=c1c(Cc2ccc(F)cc2)c(O)ccn1C1CCCCC1,-4.15%
2,CC(C)c1ccc(CNC(=O)CCc2ccccc2)cc1,-7.2%
3,CCCN(CC1CC1)C(=S)NC(=O)C1CC1,19.4%
4,COc1ccc(C2C(C(=O)NCCN(C)C)c3cc(OC)c(OC)cc3C(=O)N2C)cc1OC (centres unmarked),-1.57%
5,COc1ccc(-c2nc(NC(=O)CSc3nnc(C)s3)ns2)cc1,-2.08%
6,CC(C)CCNC(=O)c1c[nH]c2ccc(S(=O)(=O)N3CCC4(CC3)OCCO4)cc2c1=O,2.95%
7,COc1ccc(N2CCCn3c2nc2c3c(=O)n(CCc3ccccc3)c(=O)n2C)cc1,-7.83%
8,Cc1ccc(C2CC2c2n[nH]c(=S)n2-c2ccc(C)cc2)cc1 (centres unmarked),5.33%
9,Cn1ncc(Cl)c1C(=O)N1CCC2(CC1)OCCO2,-4.02%
10,CC(=O)NC[C@H]1CN(c2ccc(N3CCOCC3)c(F)c2)C(=O)O1,-2.63%
11,Cc1c(N2C(=O)c3cccc4cccc(c34)C2=O)cnn1C,6.55%
12,O=C(CSc1ccc(-c2cccs2)nn1)c1cccs1,-15.2%
13,O=C1CN=C(c2ccc[nH]2)c2cc(Cl)ccc2N1,-16%
14,Cc1cccc(-c2nc(CN3CCCC(C(=O)NC4CCCCCC4)C3)c(C)o2)c1 (centres unmarked),-69.8%
15,COc1ccc(-c2csc(N(CCCN(C)C)C(=O)c3ccccc3F)n2)cc1.Cl,-35.3%
16,Cc1nc2ccccc2n1CC(=O)N/N=C\c1ccccn1,6.22%
17,CC1CCCCN1S(=O)(=O)c1ccc(S(=O)(=O)N2CCCC2)cc1 (centres unmarked),5.9%
18,CCOC(=O)C1CCN(C(=O)c2cc3cc(Cl)ccc3[nH]2)CC1,-36.6%
